Consider 58 compounds from paper PMC4336329 (PLoS ONE, 2015).

The whole screen tested about 310,000 compounds, of which about 14,000 (4.5%) showed an effect of 50% or more. Effects have a minus sign here. Some of the results follow.
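Also: peak tail current of the secondary pulse compared with the same well before compound.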

Chain of human ether-à-go-go-related gene (hERG) potassium channel (Q12809 whole entry, looked up): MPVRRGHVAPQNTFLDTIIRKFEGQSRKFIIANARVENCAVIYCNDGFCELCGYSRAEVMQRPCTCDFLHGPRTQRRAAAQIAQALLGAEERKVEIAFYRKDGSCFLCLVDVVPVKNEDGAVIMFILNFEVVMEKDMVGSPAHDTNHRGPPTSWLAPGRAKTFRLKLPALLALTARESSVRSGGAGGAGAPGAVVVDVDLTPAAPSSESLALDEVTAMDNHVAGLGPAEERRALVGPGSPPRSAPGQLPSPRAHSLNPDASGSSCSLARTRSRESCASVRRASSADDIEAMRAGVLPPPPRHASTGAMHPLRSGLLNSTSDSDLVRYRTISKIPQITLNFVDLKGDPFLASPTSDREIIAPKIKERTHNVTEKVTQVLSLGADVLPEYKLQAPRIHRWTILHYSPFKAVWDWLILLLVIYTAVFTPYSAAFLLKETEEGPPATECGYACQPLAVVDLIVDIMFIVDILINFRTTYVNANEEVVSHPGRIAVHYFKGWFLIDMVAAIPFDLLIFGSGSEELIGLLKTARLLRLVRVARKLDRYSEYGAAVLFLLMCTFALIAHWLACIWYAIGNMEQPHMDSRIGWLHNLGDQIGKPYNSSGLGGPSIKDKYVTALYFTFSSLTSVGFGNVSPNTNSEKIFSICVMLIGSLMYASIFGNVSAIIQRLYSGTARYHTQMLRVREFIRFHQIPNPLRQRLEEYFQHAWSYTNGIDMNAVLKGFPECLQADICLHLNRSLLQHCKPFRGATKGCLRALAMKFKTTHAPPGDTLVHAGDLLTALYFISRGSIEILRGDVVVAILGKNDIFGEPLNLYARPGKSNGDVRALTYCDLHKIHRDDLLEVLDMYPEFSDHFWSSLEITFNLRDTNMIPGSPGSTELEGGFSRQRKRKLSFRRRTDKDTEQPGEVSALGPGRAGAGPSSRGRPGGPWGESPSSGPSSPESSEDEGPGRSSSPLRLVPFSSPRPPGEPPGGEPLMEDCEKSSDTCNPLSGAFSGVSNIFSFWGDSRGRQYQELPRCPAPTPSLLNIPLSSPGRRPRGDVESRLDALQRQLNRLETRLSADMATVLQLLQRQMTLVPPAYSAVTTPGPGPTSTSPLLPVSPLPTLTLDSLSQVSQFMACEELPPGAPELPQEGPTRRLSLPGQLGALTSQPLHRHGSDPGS

The assay addresses human ether-à-go-go-related gene (hERG) potassium channel (human, UniProt Q12809). Description: primary screen, population patch clamp on CHO cells stably expressing hERG.
As for `CC(OC(=O)CCC(=O)c1cccs1)C(=O)Nc1ccc(Cl)cn1` (stereo not shown), the “hERG current change (%, negative = inhibition) at 10uM” value is given as -9.49%.

`Cc1noc2ncnc(Oc3ccc(F)cc3)c12`: the “hERG current change (%, negative = inhibition) at 10uM” value is recorded as -14.3%.

Regarding `CNC(=O)OC(C)CNS(=O)(=O)c1ccc(C)cc1` (stereo not shown), the “hERG current change (%, negative = inhibition) at 10uM” value is -3.92%.

Turning to `CCOC(=O)C1=C(N)N(c2ccccc2)C(=O)C1`, the “hERG current change (%, negative = inhibition) at 10uM” value is -2.06%.

In the case of `CC(=O)c1cccc(NC(=O)C2CC(=O)N(CCc3ccccc3)C2)c1` (stereo not shown), the “hERG current change (%, negative = inhibition) at 10uM” value is -2.22%.

Regarding `CC1=C(C/C=C(\C)CCCC(C)CCCC(C)CCCC(C)C)C(=O)c2ccccc2C1=O` (stereo not shown), the “hERG current change (%, negative = inhibition) at 10uM” value worked out at 25.4%.

Turning to `CCCCN(C(=O)CCC(=O)Nc1cc(C)on1)C(C(=O)NC1CCCC1)c1ccc(OCC)cc1` (stereo not shown), the “hERG current change (%, negative = inhibition) at 10uM” value is on record as -38.3%.

With `CCOC(=O)Cc1csc(NC(=O)CN2C(=O)c3ccccc3C2=O)n1`, the “hERG current change (%, negative = inhibition) at 10uM” value is listed as 9.83%.

Turning to `COc1ccc(-n2nc(C(=O)NCC(=O)N3CCC4(CC3)OCCO4)c3ccccc3c2=O)cc1`, the “hERG current change (%, negative = inhibition) at 10uM” value was found to be 13.5%.

As to `CC1CCC(NC(=O)CCS(=O)(=O)c2ccc3c(c2)NC(=O)CO3)CC1` (stereo not shown), the “hERG current change (%, negative = inhibition) at 10uM” value is reported as 5.55%.

Take `CSc1ccc(CN2CCC(Oc3ccc(C(=O)N4CCCC4)cc3)CC2)cc1`: the “hERG current change (%, negative = inhibition) at 10uM” value is on record as -71.1%.

As to `CCOC(=O)C1=C(C)NC(SCC(N)=O)=C(C#N)C1c1ccncc1` (stereo not shown), the “hERG current change (%, negative = inhibition) at 10uM” value is given as -2.1%.

On to `O=C(Nc1cccnc1)c1c(O)c2cccc3c2n(c1=O)CC3`, for which the “hERG current change (%, negative = inhibition) at 10uM” value amounted to 10.5%.

As to `CC(C)C(=O)Nc1ccc(NC(=O)c2cccnc2)cn1`, the “hERG current change (%, negative = inhibition) at 10uM” value is on record as 0.629%.

As to `Nc1cc(Nc2ccccc2)ccn1.O=P(O)(O)O`, the “hERG current change (%, negative = inhibition) at 10uM” value is reported as -7.8%.

Regarding `CCC(=O)Nc1cccc(C(=O)OC)c1`, the “hERG current change (%, negative = inhibition) at 10uM” value was 10.6%.

With `C=CC[C@]12CCc3sccc3C1N(c1ccc(C(=O)OCC)cc1)C2=O` (stereo partly shown), the “hERG current change (%, negative = inhibition) at 10uM” value worked out at 6.35%.

Take `Cc1cc(C)cc(NC(=O)Cn2cnc3c(nnn3Cc3ccc(F)cc3)c2=O)c1`: the “hERG current change (%, negative = inhibition) at 10uM” value came to 18.3%.

On to `COn1c(-c2ccccc2)nc2c1CCc1nonc1-2`, for which the “hERG current change (%, negative = inhibition) at 10uM” value amounted to 4.76%.

For `Cc1sc(NC(=O)c2ccco2)c(C(c2ccccc2)N2CCC(C)CC2)c1C` (stereo not shown), the “hERG current change (%, negative = inhibition) at 10uM” value was determined as 14.6%.

For `Nc1cc(-c2ccccc2)nn1Cc1ccccc1`, the “hERG current change (%, negative = inhibition) at 10uM” value is given as -25.8%.

For the compound `CC(=O)OCC(=O)C1=CCC2C3CCC4=CC(=O)C=CC4(C)C3(F)C(OC(C)=O)CC12C` (stereo not shown), the “hERG current change (%, negative = inhibition) at 10uM” value was 4.04%.

For `Cc1ccccc1NC(=S)N1CCN(Cc2ccccc2)CC1`, the “hERG current change (%, negative = inhibition) at 10uM” value was determined as 13.9%.

Consider `O=C(O)CCCc1c(-[n+]2ccccc2)[nH]c2ccccc12.[Cl-]`, for which the “hERG current change (%, negative = inhibition) at 10uM” value stood at 32.2%.

In the case of `O=C(C1CCCN(Cc2cccnc2)C1)N1CCCCC1.O=C(O)C(=O)O` (stereo not shown), the “hERG current change (%, negative = inhibition) at 10uM” value worked out at 7.77%.

As to `Cc1ccc(NC(=O)CN(C)CC(=O)Nc2sc3c(c2C(N)=O)CCC3)cc1`, the “hERG current change (%, negative = inhibition) at 10uM” value is reported as -55.5%.

On to `COc1cccc(CCNC(=O)CCc2nnc(-c3ccc4c(c3)OCO4)o2)c1`, for which the “hERG current change (%, negative = inhibition) at 10uM” value is -7.05%.

As to `COC(=O)c1ccc(CSc2ccc3nnc(-c4ccc(F)cc4)n3n2)o1`, the “hERG current change (%, negative = inhibition) at 10uM” value is reported as -29.1%.

`Cc1ccccc1N=C1N=C(N)c2ccccc21`: the “hERG current change (%, negative = inhibition) at 10uM” value was -2.13%.

Take `CCOc1ccc2[nH]c(=O)c(CN(CCN3CCCC3)C(=S)Nc3ccccc3OCC)cc2c1`: the “hERG current change (%, negative = inhibition) at 10uM” value was -70.2%.

Turning to `CCCC[C@@H]1CNCCN1CCc1cccc(F)c1`, the “hERG current change (%, negative = inhibition) at 10uM” value is on record as -49.6%.

`O=C(NC12CC3CC(CC(C3)C1)C2)N1CCC(O)(c2ccc3c(c2)OCO3)CC1`: the “hERG current change (%, negative = inhibition) at 10uM” value is recorded as -1.21%.

Consider `O=C(NNC(=S)NC(=O)c1ccccc1[N+](=O)[O-])c1ccccc1O`, for which the “hERG current change (%, negative = inhibition) at 10uM” value was determined as 8.13%.

Regarding `COc1ccc(-c2n[nH]c(=S)n2-c2ccc3c(c2)OCCO3)cc1OC`, the “hERG current change (%, negative = inhibition) at 10uM” value is 15.2%.

Regarding `Cc1cc(=O)[nH]c(SCC(=O)N2C(C)CCCC2C)n1` (stereo not shown), the “hERG current change (%, negative = inhibition) at 10uM” value was 3.9%.

Regarding `Cc1cccc(C(=O)NNC(=O)c2cccc([N+](=O)[O-])c2)c1`, the “hERG current change (%, negative = inhibition) at 10uM” value was determined as 5.61%.

Take `CCCCn1c(NC(=O)c2ccc(Br)o2)c(C(=O)OCC)c2nc3ccccc3nc21`: the “hERG current change (%, negative = inhibition) at 10uM” value was -53.8%.

With `CCOC(=O)c1noc(C)c1C(=O)Nc1nccs1`, the “hERG current change (%, negative = inhibition) at 10uM” value was 14.1%.

Regarding `Cc1nc2oc3ccccc3c(=O)c2cc1C(=O)O`, the “hERG current change (%, negative = inhibition) at 10uM” value is on record as 22.6%.

As for `CC(C)CN(CC(C)C)C(=O)Nc1cccc([N+](=O)[O-])c1`, the “hERG current change (%, negative = inhibition) at 10uM” value was found to be 11.9%.

With `CCC(=O)Nc1ccccc1C(=O)OCC(=O)c1ccc2ccccc2c1`, the “hERG current change (%, negative = inhibition) at 10uM” value worked out at 1.16%.

For `CN(C)S(=O)(=O)c1cccc(NC(=O)CCCC2CCCCC2)c1`, the “hERG current change (%, negative = inhibition) at 10uM” value stood at 6.35%.

On to `COc1cccc(C(c2c(NC(=O)c3ccccc3)sc(C)c2C)N2CCN(C)CC2)c1` (stereo not shown), for which the “hERG current change (%, negative = inhibition) at 10uM” value is on record as -17.6%.

With `Cc1cccc(N/C=C/C(=O)c2ccc(Cl)cc2)c1`, the “hERG current change (%, negative = inhibition) at 10uM” value came to 21.2%.

As to `Cc1nnc(SCC(=O)Nc2sccc2C#N)n1Cc1ccccc1`, the “hERG current change (%, negative = inhibition) at 10uM” value is -31%.

Turning to `O=C(O)c1cccc(N2C(=O)Nc3ccccc3N2O)c1`, the “hERG current change (%, negative = inhibition) at 10uM” value amounted to 10.2%.

Take `CCC1Oc2ccc(Cl)cc2N(CC(=O)O)C1=O` (stereo not shown): the “hERG current change (%, negative = inhibition) at 10uM” value is given as -10.1%.

For `O=C1Cn2c(nc3ccccc32)-c2ccccc2N1`, the “hERG current change (%, negative = inhibition) at 10uM” value worked out at 0.249%.

As to `O=C1c2ccccc2C(=O)N1SC1CCCCC1`, the “hERG current change (%, negative = inhibition) at 10uM” value is on record as 30.3%.

For `CS(=O)(=O)N1CCC(C(=O)N2CCN(c3ccccc3)CC2)CC1`, the “hERG current change (%, negative = inhibition) at 10uM” value amounted to 17.1%.

Turning to `O=C(NC1CCN(Cc2ccccc2)CC1)c1ccccc1Cl`, the “hERG current change (%, negative = inhibition) at 10uM” value stood at 1.15%.

As for `COC(=O)C1=C(c2cc3ccccc3o2)C[C@@H]2CC[C@H]1N2C(=O)N1CCC(O)CC1`, the “hERG current change (%, negative = inhibition) at 10uM” value turned out to be 0.432%.

For the compound `C=CCNC(=O)/C(C#N)=C/c1ccc(C(=O)O)cc1`, the “hERG current change (%, negative = inhibition) at 10uM” value turned out to be 13.6%.

Take `O=C(Nc1ccc(C(=O)NCC2CCN(Cc3ccccc3F)CC2)cc1)C1=CSCCO1`: the “hERG current change (%, negative = inhibition) at 10uM” value is given as -9.04%.

For `COc1cccc(-c2nc(NCc3cccnc3)c3ccccc3n2)c1O`, the “hERG current change (%, negative = inhibition) at 10uM” value stood at 13.7%.

On to `CCOc1ccc(NC(=O)N(C2CCCCC2)C2CCN(C(C)=O)CC2)cc1`, for which the “hERG current change (%, negative = inhibition) at 10uM” value is on record as -7.04%.

As for `CN1CCN(C(=O)C2=C[C@@H](c3ccc4c(c3)OCO4)C[C@@H](OCc3ccc(CO)cc3)O2)CC1`, the “hERG current change (%, negative = inhibition) at 10uM” value was -17%.

`COc1ccc(-c2cc(C(=O)NC(C)c3ccccn3)c3ccccc3n2)cc1OC` (stereo not shown): the “hERG current change (%, negative = inhibition) at 10uM” value is reported as -4.89%.
